According to PubChem BioAssay AID686978 (National Center for Advancing Translational Sciences (NCATS), 2013):
About 64,000 (15%) of roughly 420,000 compounds were called active. This list was built around the results that the source calls inconclusive (neither active nor inactive); the mix of calls is not that of the screen. Calls follow the shape of the dose curve; as a rule, active = well fitted inhibition curve with a large enough effect; inconclusive = small, poorly fitted or top-dose-only effect; inactive = flat fitted curve, though single readings scatter. No potency is given beside an inconclusive call; the fits are too rough.

test: qHTS for Inhibitors of human tyrosyl-DNA phosphodiesterase 1 (TDP1): qHTS in cells in absence of CPT; conditions: DT40 Tdp1-/- hTDP1 cells, no CPT, ATP luminescence, 48 h; activity change, negative = growth inhibition: at 46.2 µM (top of the series) unless noted; also: nearly all actives have a fitted effect of over 55% in size
Summary of the method: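 Camptothecin absent (DMSO only). Human TDP1-complemented DT40 knockout cells, 400 cells/well, 37 °C for minimum 48 hr; ATP measured via CellTiter-Glo, 30 min dark incubation, luminescence.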
% is scaled to controls: 0 for no effect and ±100 for the full control effect; potency is read from the fitted curve at half-maximal effect; tags tell the direction and shape of the fitted curve.

Row | SMILES | Potency | activity change, negative = growth inhibition
1 | Cn1cc(/C=C2/SC(=O)N(c3ccccc3)C2=O)c2ccccc21 | inactive | 
2 | O=S1(=O)NC(=NC2CCCCCC2)c2ccccc21 |  | inconclusive: -31.8% [inhibitor]
3 | O=[N+]([O-])c1cc(S(=O)(=O)O)cc([N+](=O)[O-])c1NN(c1ccccc1)c1ccccc1 | inconclusive [inhibitor, partial curve, poor fit] | 
4 | Cc1ccsc1/C=N/NC(=O)CC(=O)NCC(C)C | inactive | 
5 | O=C(/C=C/c1ccccc1)N1CCN(CC(O)COc2ccccc2)CC1 (stereo not given) | inactive | 
6 | COc1ccc(/C=N\NS(=O)(=O)c2ccc(C)cc2)cc1COc1ccccc1[N+](=O)[O-] | inconclusive [inhibitor, single point] | 
7 | COc1ccc(C(OC(=O)c2ccco2)C(=O)NC2CCCCC2)cc1OC (stereo not given) | inactive | 
8 | CS(=O)(=O)N(CC(=O)Nc1ccccc1Sc1ccccc1)c1cccc(Br)c1 | inconclusive [inhibitor, single point] | 
9 | CN(Cc1ccccc1)C(=O)CCS(=O)(=O)c1cc(Br)cc2c1N(C(=O)C1CC1)CC2 | inconclusive [inhibitor, single point] | 
10 | OC(c1ccccc1)(c1ccccc1)c1nccc2ccccc12 | inconclusive [inhibitor, single point] | 
11 | O=C(CSc1nccn1-c1cccc(Cl)c1)Nc1cccc(C(F)(F)F)c1 | inconclusive [inhibitor, single point] | 
12 | O=C(NC(=O)N1CCN(c2cccc(Cl)c2)CC1)c1ccc(Cl)cc1 | inconclusive [inhibitor, single point] | 
13 | CCOC(=O)c1c(C)oc2ccc(OCC(=O)N(CC)CC)cc12 |  | inconclusive: -33.8% [inhibitor]
14 | Brc1ccc2c(ccc[n+]2CCc2ccccc2)c1 | inconclusive [inhibitor, single point] | 
15 | COc1ccc(NC(=O)Nc2cccc(Cl)c2Cl)c(OC)n1 | inactive | 
16 | Cc1nn2c3c(cnc2c1-c1ccccc1)C(=O)CC(c1ccccc1)C3 (stereo not given) | inconclusive [inhibitor, single point] | 
17 | COc1ccc(CCC(=O)NNC(=O)Nc2ccccc2Cl)cc1 | inactive | 
18 | CC1CCN(c2nc3ccc(C(=O)NCCCN4CCCCC4C)cc3s2)CC1 (stereo not given) | inconclusive [inhibitor, single point] | 
19 | CN(Cc1ccccc1)C(=O)c1cc(S(=O)(=O)N2CCOCC2)cn1C | inactive | 
20 | Cc1ccc(NC(=O)c2cccc(C(F)(F)F)c2)cc1NC(=O)c1[nH]cnc1C(N)=O | inactive | 
